# PubChem BioAssay AID1345083 (National Center for Advancing Translational Sciences (NCATS), 2018)
# In all, about 94,000 compounds went through this assay and about 6,200 (6.6%) were called active. Inconclusive means that the source gave no clear call. Such entries were picked first, then a sample of the others. The call rests on the fitted dose curve; in most records, active means well fitted inhibition curve with a large enough effect; inconclusive means small, poorly fitted or top-dose-only effect; inactive means flat fitted curve, though single readings scatter. Where the call is inconclusive, the potency comes from a doubtful curve fit.
# Test: Cytotoxic Profiling in HEK 293 Cell Line of Diverse Libraries Using Quantitative High-Throughput Screening; further: nearly all actives have a fitted effect of over 60% in size
# Conditions: HEK 293 viability, ATP luminescence (CellTiter-Glo), 48-72 h; series mostly up to 115 µM; activity change, negative = cytotoxicity: at the top concentration
# Method in brief: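 CellTiter-Glo luminescence (cellular ATP) was read after 48 or 72 hr of compound exposure at 37 degree Celsius. Cells were HEK 293 plated at 250 cells/well.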
# On the % scale 0 is the no-effect control and ±100 the full control effect; potency means the concentration at half of the fitted maximal effect; tags describe the fitted curve by direction and shape.
SMILES,Potency,"activity change, negative = cytotoxicity",outcome
CN1CCc2c([nH]c3ccccc23)C12CCNCC2,active: 89.1 µM,–,–
COc1cc2c(cc1OCC1CC1)NC(=O)C21CCN(c2nc(C)cc(C)n2)CC1,"inconclusive: 100 µM [inhibitor, partial curve]",–,–
Cc1ccc(C(=O)NC[C@H]2C[C@@H]3CCN2C[C@@H]3c2cc(-c3ccccc3Br)nc(C)n2)cc1,"inconclusive: 56.2 µM [inhibitor, partial curve, poor fit]",–,–
COc1ccc(-c2cc([C@H]3CN4CC[C@H]3C[C@@H]4CNS(=O)(=O)c3cccs3)n(C)n2)cc1,"inconclusive: 100 µM [inhibitor, single point]",–,–
CN1CCN(C(=O)Cc2c[nH]c3ncc(-c4cccc(F)c4)cc23)CC1,–,inactive: -17.9% [at 172 µM],–
O=C1CC2CCN(Cc3cncs3)CC2CCN1 (centres undefined),–,–,inactive [at 172 µM]
COc1cccc([C@H]2CN(c3cc(C)nc(N)n3)[C@@H]3C4CCN(CC4)[C@H]23)c1,–,inactive: -20.8%,–
CN1C(=O)C2(CCN(Cc3cccnc3)C2)c2ccccc21 (centres undefined),–,inactive: -9.11% [at 172 µM],–
O=c1c(-c2cccs2)ccc2n1C[C@H]1C[C@@H]2CN(Cc2cc3ccccc3o2)C1,active: 89.1 µM,–,–
COc1cc2c(cc1Oc1ccccc1)NC(=O)C21CCN(C(=O)c2ccnn2C)CC1,active: 70.8 µM,–,–
CCn1cc(S(=O)(=O)N2[C@H]3CC[C@@H]2c2cnc(-c4ccccc4)nc2C3)cn1,"inconclusive: 100 µM [inhibitor, single point]",–,–
CC1CCN(C[C@H]2CN3CC[C@H]2C[C@@H]3CNC(=O)c2ccc(C(F)(F)F)cc2)CC1,"inconclusive: 89.1 µM [inhibitor, partial curve, poor fit]",–,–
C#CCN1C(=O)[C@@H]2[C@H](c3ccccc31)[C@@H](C(=O)OCC)[C@@H](c1ccccc1)N2C(=O)C(=O)OCC,"inconclusive: 39.8 µM [inhibitor, full curve, poor fit]",–,–
CN(C)c1ccc(C(=O)NC[C@H]2C[C@@H]3CCN2C[C@@H]3CN2CCN(c3ccc(F)cc3)CC2)cc1,"inconclusive: 56.2 µM [inhibitor, partial curve, poor fit]",–,–
COc1ccc(C(=O)N2CCC3(CC2)C(=O)Nc2cc(OCC4CC4)c(OC)cc23)cc1,"inconclusive: 112 µM [inhibitor, partial curve, poor fit]",–,–
C=C[C@H]1CN2CC[C@H]1C[C@@H]2CNCc1ccc(N(C)C)cc1,"inconclusive: 100 µM [inhibitor, partial curve]",–,–
COc1cc2c(cc1Oc1ccccc1)NC(=O)C21CCN(Cc2ccccn2)CC1,active: 56.2 µM,–,–
Cc1nc(-c2cccs2)cc([C@H]2CN3CC[C@H]2C[C@@H]3CNC(=O)N2CCOCC2)n1,"inconclusive: 79.4 µM [inhibitor, partial curve, poor fit]",–,–
CCOC(=O)[C@@H]1[C@H]2c3ccccc3N(CCOC)C(=O)[C@H]2N(C(=O)OCC)[C@@H]1c1ccccc1,"inconclusive: 50.1 µM [inhibitor, partial curve, poor fit]",–,–
COc1ccc(-c2cc([C@H]3CN4CC[C@H]3C[C@@H]4CNC(=O)C3CCCCC3)n(C)n2)cc1,"inconclusive: 50.1 µM [inhibitor, partial curve, poor fit]",–,–
O=C(O)c1cccc(C(=O)N2C[C@@H]3C[C@H](C2)c2ccc(NC(=O)C4CC4)c(=O)n2C3)c1,"inconclusive: 100 µM [inhibitor, partial curve]",–,–
CCOC(=O)[C@H]1CN(C(=O)c2ccc(Cl)cc2)[C@]2(C)C(=O)N(CCOC(C)=O)c3ccccc3[C@H]12,"inconclusive: 39.8 µM [inhibitor, single point]",–,–

SMILES,Potency,"activity change, negative = cytotoxicity",outcome
Cn1nc(-c2ccc3ccccc3c2)cc1[C@H]1CN2CC[C@H]1C[C@@H]2CNC(=O)NCc1ccccc1,"inconclusive: 20 µM [inhibitor, full curve, poor fit]",–,–
CCOC(=O)[C@H]1CN(C(=O)CCc2ccccc2)[C@]2(C)C(=O)N(CCOC(C)=O)c3ccccc3[C@H]12,active: 89.1 µM,–,–
COc1cc2c(cc1OCc1ccncc1)NC(=O)C21CCN(c2ccccn2)CC1,"inconclusive: 63.1 µM [inhibitor, partial curve, poor fit]",–,–
O=S(=O)(NC[C@H]1C[C@@H]2CCN1C[C@@H]2CN1CCc2ccccc21)c1ccccc1,active: 56.2 µM,–,–
CN1CCN(C[C@H]2CN3CC[C@H]2C[C@@H]3CNC(=O)Nc2ccccc2)CC1,–,inactive: 3.92% [at 172 µM],–
Cn1nc(-c2ccc(F)cc2)cc1[C@H]1CN2CC[C@H]1C[C@@H]2CNC(=O)c1cccs1,active: 44.7 µM,–,–
COc1ccc(-c2cc([C@H]3CN4CC[C@H]3C[C@@H]4CN)nc(C)n2)cc1OC,"inconclusive: 112 µM [inhibitor, partial curve, poor fit]",–,–
COc1ccc(-c2cc([C@H]3CN4CC[C@H]3C[C@@H]4CNC(=O)C3CCCCC3)n(C)n2)cc1OC,"inconclusive: 89.1 µM [inhibitor, single point]",–,–
CC(C)N1CC2CCC(C1)N2S(C)(=O)=O,–,–,inactive [at 172 µM]
COc1cc2c(cc1OCC1CC1)NC(=O)C21CCN(c2nc(C)cnc2C)CC1,"inconclusive: 63.1 µM [inhibitor, partial curve, poor fit]",–,–
CN(C)[C@@H]1CN(C(=O)Cc2ccc(F)cc2)C[C@H]1CO,–,–,inactive
CCOC(=O)[C@H]1CN(C(=O)c2ccc(C)cc2)[C@]2(C)C(=O)Nc3ccccc3[C@H]12,"inconclusive: 31.6 µM [inhibitor, partial curve]",–,–
OCC1CN(C2CCC2)CC12CCNCC2 (centres undefined),–,inactive: 2.32%,–
Cn1nc(C2CCCC2)cc1[C@H]1CN2CC[C@H]1C[C@@H]2CNC(=O)c1ccc2c(c1)OCO2,"inconclusive: 39.8 µM [inhibitor, full curve]",–,–
COc1cc2c(cc1OCC1CC1)NC(=O)C21CCN(c2cc(NC3CC3)ncn2)CC1,active: 89.1 µM,–,–
O=[S+]1([O-])NCC2(CCN(Cc3cccnc3)C2)Nc2ccccc21 (centres undefined),–,inactive: 1.58%,–
Cc1ccc(C(=O)N2CCC3(CC2)c2nccn2-c2ccccc2CN3CC(C)C)cc1F,active: 35.5 µM,–,–
Cc1ccc(OCC(=O)N2CCCCCC2CN2CCC(C)CC2)cc1 (centres undefined),"inconclusive: 50.1 µM [inhibitor, partial curve, poor fit]",–,–
Cc1nc(-c2ccco2)cc([C@H]2CN3CC[C@H]2C[C@@H]3CNC(=O)C2CCC2)n1,–,inactive: -8.6% [at 172 µM],–
CCOC(=O)[C@H]1CN(C(=O)c2cc(C)oc2C)[C@]2(C)C(=O)N(C)c3ccccc3[C@H]12,–,inactive: -32.9% [at 57.5 µM],–
CCOC(=O)[C@H]1CN(S(=O)(=O)c2ccccc2)[C@]2(C)C(=O)N(CC(=O)N(C)C)c3ccccc3[C@H]12,–,inactive: -22.4% [at 57.5 µM],–
Cn1cc(CN2CCN(C(=O)COc3ccc(F)cc3)CC2)ccc1=O,"inconclusive: 79.4 µM [inhibitor, single point]",–,–

SMILES,Potency,"activity change, negative = cytotoxicity",outcome
Cc1nc(-c2cccs2)cc([C@H]2CN3CC[C@H]2C[C@@H]3CNC(=O)Nc2cccc(C(F)(F)F)c2)n1,active: 25.1 µM,–,–
Cn1nccc1C(=O)N1[C@H]2CC[C@@H]1c1cnc(-c3ccccc3)nc1C2,"inconclusive: 20 µM [inhibitor, full curve, poor fit]",–,–
COc1ccc(C(=O)NC[C@H]2C[C@@H]3CCN2C[C@@H]3c2cc(-c3ccccc3)nn2C)cc1,active: 89.1 µM,–,–
CCCNC(=O)OC[C@H]1C[C@@H]2CCN1C[C@@H]2c1cc(-c2ccc(OC)cc2)nn1C,"inconclusive: 79.4 µM [inhibitor, partial curve]",–,–
CC[C@H]1CN2CC[C@H]1C[C@@H]2CNC(=O)NC1CCCCC1,–,–,inactive [at 172 µM]
O=C(O)C1=NOC2CN(CC3CCNC3)CC12 (centres undefined),–,–,inactive [at 230 µM]
CCn1cc(CN2CCN(C(=O)Cc3c(C)noc3C)CC2)ccc1=O,"inconclusive: 89.1 µM [inhibitor, single point]",–,–
CC(C)CN1Cc2ccccc2-n2ccnc2C12CCN(C(=O)c1cccc(F)c1)CC2,active: 35.5 µM,–,–
CCCNC(=O)OC[C@H]1C[C@@H]2CCN1C[C@@H]2c1cc(-c2cccs2)nc(C)n1,active: 112 µM,–,–
O=C1NCc2ccccc2CC12CCCN2Cc1ccnc(Cl)c1 (centres undefined),"inconclusive: 79.4 µM [inhibitor, partial curve]",–,–
COc1ccc(NC(=O)N2[C@H]3CC[C@@H]2c2cncnc2C3)cc1OC,–,inactive: 2.74%,–
COc1cccc([C@@H]2CCN(Cc3[nH]c4ccccc4c3C)C[C@H]2O)c1,"inconclusive: 50.1 µM [inhibitor, partial curve, poor fit]",–,–
CN1Cc2ccccc2-n2ccnc2C12CCN(C(=O)c1cccc(Cl)c1)CC2,"inconclusive: 89.1 µM [inhibitor, single point]",–,–
CN(C)c1ccc(C(=O)NC[C@H]2C[C@@H]3CCN2C[C@@H]3c2cc(C3CCCCC3)nn2C)cc1,"inconclusive: 35.5 µM [inhibitor, partial curve, poor fit]",–,–
N#Cc1ccccc1S(=O)(=O)N1C[C@@H]2C[C@H](C1)c1c(-c3ccccc3F)ccc(=O)n1C2,–,inactive: -9.42%,–
CCOC(=O)[C@H]1CN(C(=O)/C=C/c2ccccc2)[C@]2(C)C(=O)N(CC3CC3)c3ccccc3[C@H]12,active: 28.2 µM,–,–
O=c1c(-c2cccs2)ccc2n1C[C@H]1C[C@@H]2CN(C2CCOCC2)C1,–,inactive: -19.2% [at 172 µM],–
COCc1cn(C[C@H]2C[C@@H]3CCN2C[C@@H]3C(=O)N2CCCC2)nn1,–,inactive: 3.59% [at 172 µM],–
COc1cc2c(cc1OCC1CC1)NC(=O)C21CCN(c2nccs2)CC1,"inconclusive: 100 µM [inhibitor, partial curve, poor fit]",–,–
CC(C)(C)CN1CCCC2(CC(c3cccnc3)=NO2)C1 (centres undefined),"inconclusive: 100 µM [inhibitor, single point]",–,–
